Reference: patent US20240052055A1 (SIMCERE ZAIMING PHARMACEUTICAL, published 2024)

T1: polypeptide YP7pep of human GPC3 (Asp511-Ser560) (human)
T1 construct: Synthetic peptide made by GL Biochem; also called polypeptide YP7pep protein
T1 peptide: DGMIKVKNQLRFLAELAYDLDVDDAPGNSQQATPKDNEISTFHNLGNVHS


Assays:
[1] = biological target: T2, monkey GPC3-His protein (Acro, Cat. No. GP3-05225) (monkey, UniProt A5A6P7 25-559); assay: ELISA; antibody 0.001 nM
T2 construct: Bought protein; the soluble protein surely lacks signal peptide and C-terminal anchor region; also called monkey GPC3 protein; not shown: His tag
Procedure: (§1) After incubation for 2 h at 37° C., the plate was washed 3 times with PBS.

[2] = biological target: T3, mouse GPC3-His protein (Sino Biological, Cat. No. 50989-M08B) (mouse, UniProt Q8CFZ4 25-558); assay: ELISA; antibody 0.001 nM
T3 construct: Bought protein; also called mouse GPC3 protein; not shown: His tag
T3 sequence (Q8CFZ4 25-558 limits assumed): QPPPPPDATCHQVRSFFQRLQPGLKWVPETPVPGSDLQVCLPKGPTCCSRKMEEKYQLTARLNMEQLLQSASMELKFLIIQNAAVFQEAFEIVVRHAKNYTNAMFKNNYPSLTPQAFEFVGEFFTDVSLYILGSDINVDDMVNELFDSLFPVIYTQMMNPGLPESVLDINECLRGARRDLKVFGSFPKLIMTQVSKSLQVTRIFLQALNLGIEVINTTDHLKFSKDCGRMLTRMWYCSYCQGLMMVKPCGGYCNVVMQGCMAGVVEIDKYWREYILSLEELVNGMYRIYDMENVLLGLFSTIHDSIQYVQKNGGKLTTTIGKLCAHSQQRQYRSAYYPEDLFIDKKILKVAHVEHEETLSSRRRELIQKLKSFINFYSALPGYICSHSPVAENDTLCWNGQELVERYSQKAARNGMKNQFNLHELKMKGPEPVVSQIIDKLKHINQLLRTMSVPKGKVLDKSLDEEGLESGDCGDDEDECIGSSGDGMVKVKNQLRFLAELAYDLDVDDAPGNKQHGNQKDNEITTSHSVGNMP
Procedure: as §1

[3] = biological target: T4, human GPC3 (Gln25-His559)-His protein (Acro, Cat. No. GP3-H52H4) (human, UniProt P51654 25-559); assay: ELISA; antibody 0.001 nM
T4 construct: Bought protein; also called human GPC3-His protein; human GPC3-his protein; not shown: His tag
Procedure: as §1

[4] = biological target: T2, monkey GPC3-His protein (Acro, Cat. No. …); assay: ELISA; antibody 10 nM
Procedure: as §1

[5] = biological target: T3, mouse GPC3-His protein (Sino …); assay: ELISA; antibody 10 nM
Procedure: as §1

[6] = biological target: T4, human GPC3 (Gln25-His559)-His protein …; assay: ELISA; antibody 10 nM
Procedure: as §1

[7] = biological target: T2, monkey GPC3-His protein (Acro, Cat. No. …); assay: ELISA; antibody 100 nM
Procedure: as §1

[8] = biological target: T3, mouse GPC3-His protein (Sino …); assay: ELISA; antibody 100 nM
Procedure: as §1

[9] = biological target: T4, human GPC3 (Gln25-His559)-His protein …; assay: ELISA; antibody 100 nM
Procedure: as §1

[10] = biological target: T5, human GPC3 on cells (HepG2 endogenous; CHO-K1 recombinant clones CHOK1-hGPC3.1C3, 2B5, 3E9) (human, UniProt P51654 25-554); assay: FACS on CHO-K1-human GPC3 cells
T5 construct: Full-length human GPC3 (NCBI NM_004484.3) transfected into CHO-K1; HepG2 expresses GPC3 endogenously; also called CHO-K1-human GPC3 cells; HepG2 cells

[11] = biological target: T2, monkey GPC3-His protein (Acro, Cat. No. …); assay: SPR (Biacore), antibody captured on Protein A chip
Procedure: (§2) The sample and running buffer was HBS-EP+ (10 mM HEPES, 150 mM NaCl, 3 mM EDTA, 0.05% surfactant P20) (GE Healthcare; BR-1006-69). The flow cell was set at 25° C. The sample block was set at 16° C. Both were pretreated with the running buffer. […] The association and dissociation processes of the antibody with the antigen protein were recorded, and finally, the chip was regenerated using Glycine pH 1.5 (GE Healthcare; BR-1003-54). […] The dissociation phase was monitored for up to 600 s and triggered by switching from the sample solution to the running buffer. The surface was regenerated by washing with 10 mM glycine solution (pH 1.5) at a flow rate of 30 μL/min for 30 s. The difference in bulk refractive index was corrected by subtracting the responses obtained from the goat anti-human Fc surface. Blank injections were also subtracted (double reference). To calculate the apparent KD and other kinetic parameters, the Langmuir 1:1 model was used.

[12] = biological target: T4, human GPC3 (Gln25-His559)-His protein …; assay: SPR (Biacore), antibody captured on Protein A chip
Procedure: as §2

[13] = biological target: T2, monkey GPC3-His protein (Acro, Cat. No. …); assay: ELISA; antibody 0.1 nM
Procedure: as §1

[14] = biological target: T3, mouse GPC3-His protein (Sino …); assay: ELISA; antibody 0.1 nM
Procedure: as §1

[15] = biological target: T4, human GPC3 (Gln25-His559)-His protein …; assay: ELISA; antibody 0.1 nM
Procedure: as §1

[16] = biological target: T6, monkey GPC3 on HEK293T cells (monkey, UniProt A5A6P7 25-554); assay: FACS on HEK293T-monkey GPC3 cells
T6 construct: Full-length monkey GPC3 (NCBI XP_011739317.1) transfected into HEK293T; also called HEK293T-monkey GPC3 cells; HEK293T-monkey-GPC3

[17] = biological target: T2, monkey GPC3-His protein (Acro, Cat. No. …); assay: ELISA; antibody 1 nM
Procedure: as §1

[18] = biological target: T3, mouse GPC3-His protein (Sino …); assay: ELISA; antibody 1 nM
Procedure: as §1

[19] = biological target: T4, human GPC3 (Gln25-His559)-His protein …; assay: ELISA; antibody 1 nM
Procedure: as §1

[20] = biological target: T1, polypeptide YP7pep of human GPC3 …; assay: ELISA on coated polypeptide YP7pep, HRP-labeled secondary antibody
Procedure: as §1

Row | Binder | OD450 [1] | OD450 [2] | OD450 [3] | OD450 [4] | OD450 [5] | OD450 [6] | OD450 [7] | OD450 [8] | OD450 [9] | EC50 [10] [nM] | Max MFI [10] | Kd [11] [nM] | koff [11] [s⁻¹] | kon [11] [M⁻¹ s⁻¹] | Kd [12] [nM] | koff [12] [s⁻¹] | kon [12] [M⁻¹ s⁻¹] | OD450 [13] | OD450 [14] | OD450 [15] | other results
1 | S001-NB150-28(cyno+) VHH-hFc (Fc fusion, VHH recombined with human IgG1 Fc (VHH-hFc); the junction is not described) QVQLVESGGGLVQPGGSLRLSCAASGSISTYTMAWYRQAPGEQRESVAAISSGGRTDYIDSVKGRFTISRDNAKNMVYLQMNSLKPEDTAVYYCNSADGLKIGTYYFKGLGWGQGTQVTVSA[human IgG1 Fc with changes left out] | 0.052 | 0.114 | 0.122 | 1.87 | 2.32 | 2.02 | 2.12 | 2.32 | 2.45 | 0.4 | 4390 | 5.12 | 0.00157 | 306000 | 19.3 | 0.00574 | 297000 | 0.195 | 1.7 | 1.48 | EC50 [16]: 0.49 nM; Max MFI [16]: 12800; OD450 [17]: 1.06; OD450 [18]: 2.1; OD450 [19]: 1.94; binding result [20]: binds
2 | S001-NB152-72-2 VHH-hFc (Fc fusion, VHH recombined with human IgG1 Fc (VHH-hFc); the junction is not described) QVQLVESGGGLVQAGGSLRLSCAASGSILSITAMNWHRQAPGKERELVASITNGGRTNYADSVKGRFTISRDRAKGTLYLQMNNLKPEDTAVYYCYARRWTGGDRPEYESWGQGTQVTVSS[human IgG1 Fc with changes left out] | 0.063 | 0.063 | 0.109 | 2.16 | 2.34 | 2.25 | 2.25 | 2.48 | 2.2 | 21.6 | 2180 | 3.23 | 0.000754 | 234000 | 11.6 | 0.00178 | 153000 | 1.31 | 1.54 | 1.01 | EC50 [16]: 0.58 nM; Max MFI [16]: 24700; OD450 [17]: 2.07; OD450 [18]: 2.26; OD450 [19]: 2.02; EC50 (read off the curve) [20]: ~0.06 nM
3 | Tab003 (Y035 scFv-hFc) (Fc fusion, Control antibody: VL-(GGGGS)3-VH of Y035 fused to human IgG1 Fc; also called Y035 scFv-human IgG1 Fc) DIVMTQTPLSLPVITGEPASISCRSSQSLVHSNGNTYLQWYLQKPGQSPQLLIYKVSNRFSGVPDRFSGSGSGTDFTLKISRVEAEDVGVYYCSQSIYVPYTFGQGTKLEIKRGGGGSGGGGSGGGGSEVQLVQSGAEVKKPGASVKVSCKASGYTFSDYEMHWVRQAPGQGLEWMGAIHPGSGDTAYNQRFKGRVTITADKSTSTAYMELSSLRSEDTAVYYCARFYSYAYWGQGTLVTVSA[human IgG1 Fc with changes left out] | 0.077 | 0.049 | 0.268 | 1.95 | 0.051 | 2.06 | 2.28 | 0.073 | 2.2 | 4.79 | 11200 | 1.28 | 0.000309 | 242000 | 1.36 | 0.000358 | 262000 | 1.43 | 0.047 | 1.44 | EC50 [16]: 2.85 nM; Max MFI [16]: 23200; OD450 [17]: 1.93; OD450 [18]: 0.046; OD450 [19]: 1.89; EC50 (read off the curve) [20]: ~0.03 nM

Further binders by falling EC50 [10], results first:

Row | OD450 [1] | OD450 [2] | OD450 [3] | OD450 [4] | OD450 [5] | OD450 [6] | OD450 [7] | OD450 [8] | OD450 [9] | EC50 [10] [nM] | Max MFI [10] | Kd [11] [nM] | koff [11] [s⁻¹] | kon [11] [M⁻¹ s⁻¹] | Kd [12] [nM] | koff [12] [s⁻¹] | kon [12] [M⁻¹ s⁻¹] | OD450 [13] | OD450 [14] | OD450 [15] | Binder | other results
4 | 0.045 | 0.08 | 0.207 | 0.406 | 2.24 | 1.89 | 0.508 | 2.6 | 2.11 | 3.74 | 1330 | 4.64 | 0.00109 | 236000 | 7.25 | 0.000757 | 104000 | 0.049 | 1.26 | 0.521 | S001-NB150-56 VHH-hFc (Fc fusion, VHH recombined with human IgG1 Fc (VHH-hFc); the junction is not described) QVQLVESGGGLVRPGGSLRVSCAASGVDISTYTMAWYRQAPGEQRESVAAISTTGRSIYIDAVQGRFTMSRDNAKNTVYLQMNNLKPEDTAVYYCNSADDLKIGTQYFKGLGWGQGTQVTVSS[human IgG1 Fc with changes left out] | EC50 [16]: 73.9 nM; Max MFI [16]: 1920; OD450 [17]: 0.092; OD450 [18]: 1.96; OD450 [19]: 1.42; binding result [20]: no binding (tested: 100 nM)
5 | 0.092 | 0.222 | 0.096 | 2.14 | 0.073 | 2.21 | 2.75 | 0.288 | 2.5 | 0.34 | 5440 | 2.66 | 0.00048 | 181000 | 11.1 | 0.00167 | 151000 | 1.71 | 0.19 | 1.6 | S001-NB152-101 VHH-hFc (Fc fusion, VHH recombined with human IgG1 Fc (VHH-hFc); the junction is not described) QVQLVESGGGLVQAGASLRLSCLGSGRSFGLRAMGWFRQAPGKELEFVAAIGKAGDTTYYTDSVKGRFTISRDNVKNAVYLQMNSLKPEDTAVYVCATAARWEPPTITPGSYRGPGTQVTVSS[human IgG1 Fc with changes left out] | EC50 [16]: 0.6 nM; Max MFI [16]: 19400; OD450 [17]: 2.32; OD450 [18]: 0.115; OD450 [19]: 2.11; binding result [20]: no binding (tested: 100 nM)
